Source: the supplement of paper PMC4967469
pIC50: −log10 of the molar value. By IC50 is meant the dose at which the fit gives 50% viability; a fit beyond the top or the lowest dose is shown as a bound at that dose. AUC sums up the same curve from the lowest dose to the 256-fold higher top dose: 1 means no effect, lower means more sensitive. Any top dose called inferred is not printed in the source and was worked back from the curve model.

Tests used:
Test in all cases: Viability of human cancer cell lines after 72 h of drug (GDSC screen)
[1] = compound: N#Cc1c(C2CCNCC2)cc(-c2c(O)cccc2OCC2CC2)nc1N [ACHP (KIN001-260)]; conditions: top dose 20 µM; top dose inferred
Experimental: (§1)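 Human cancer cell lines in 384-well plates, medium with 10% serum, drug for 72 h over a 256-fold dose range (nine 2-fold or five 4-fold steps up to the top dose). Adherent lines were fixed and stained with the nucleic acid dye Syto60, suspension lines read with resazurin; signal relative to control wells, capped at 0 and 100%. One two-parameter sigmoid per drug and line, fitted in a mixed model over all curves with the slope shared within a line.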

[2] = compound: CC(C)(C)OC(=O)Nc1ccc(-c2cc(C(=O)NCCCCCCC(=O)NO)no2)cc1 [CAY10603]; conditions: top dose 20 µM; top dose inferred
Experimental: as §1

[3] = compound: CCc1cc2c(cc1N1CCC(N3CCOCC3)CC1)C(C)(C)c1[nH]c3cc(C#N)ccc3c1C2=O [CH5424802]; conditions: top dose 5.12 µM; top dose inferred
Experimental: as §1

[4] = compound: CCOc1cc(N2CCC(O)CC2)ccc1Nc1ncc2c(n1)N(C)c1ccccc1C(=O)N2C [XMD8-92]; conditions: top dose 10 µM; top dose inferred
Experimental: as §1

CHSA8926 (chondrosarcoma, adherent)
AUC [1]: 0.974 | pIC50 [1]: < 4.70 | AUC [2]: 0.856 | pIC50 [2]: < 4.70 | AUC [3]: 0.978 | pIC50 [3]: < 5.29 | AUC [4]: 0.942 | pIC50 [4]: < 5.00

CL-11 (large intestine, adherent)
AUC [1]: 0.987 | pIC50 [1]: < 4.70 | AUC [2]: 0.873 | pIC50 [2]: < 4.70 | AUC [3]: 0.987 | pIC50 [3]: < 5.29 | AUC [4]: 0.881 | pIC50 [4]: < 5.00

COLO-668 (small cell lung carcinoma, adherent)
AUC [1]: 0.982 | pIC50 [1]: < 4.70 | AUC [2]: 0.529 | pIC50 [2]: 5.82 | AUC [3]: 0.976 | pIC50 [3]: < 5.29 | AUC [4]: 0.98 | pIC50 [4]: < 5.00

COLO-684 (endometrium, suspension)
AUC [1]: 0.949 | pIC50 [1]: < 4.70 | AUC [2]: 0.489 | pIC50 [2]: 5.94 | AUC [3]: 0.972 | pIC50 [3]: < 5.29 | AUC [4]: 0.947 | pIC50 [4]: < 5.00

COLO-783 (melanoma, adherent)
AUC [1]: 0.99 | pIC50 [1]: < 4.70 | AUC [2]: 0.857 | pIC50 [2]: 4.82 | AUC [3]: 0.986 | pIC50 [3]: < 5.29 | AUC [4]: 0.989 | pIC50 [4]: < 5.00

COLO-800 (melanoma, adherent)
AUC [1]: 0.977 | pIC50 [1]: < 4.70 | AUC [2]: 0.818 | pIC50 [2]: 4.96 | AUC [3]: 0.984 | pIC50 [3]: < 5.29 | AUC [4]: 0.866 | pIC50 [4]: 5.07

COR-L23 (large cell lung carcinoma, adherent)
AUC [1]: 0.944 | pIC50 [1]: < 4.70 | AUC [2]: 0.427 | pIC50 [2]: 6.10 | AUC [3]: 0.987 | pIC50 [3]: < 5.29 | AUC [4]: 0.982 | pIC50 [4]: < 5.00

COR-L95 (small cell lung carcinoma, adherent)
AUC [1]: 0.972 | pIC50 [1]: < 4.70 | AUC [2]: 0.724 | pIC50 [2]: 5.22 | AUC [3]: 0.982 | pIC50 [3]: < 5.29 | AUC [4]: 0.985 | pIC50 [4]: < 5.00

CP50-MEL-B (melanoma, adherent)
AUC [1]: 0.949 | pIC50 [1]: < 4.70 | AUC [2]: 0.538 | pIC50 [2]: 5.80 | AUC [3]: 0.987 | pIC50 [3]: < 5.29 | AUC [4]: 0.901 | pIC50 [4]: < 5.00

CS1 (bone, adherent)
AUC [1]: 0.938 | pIC50 [1]: < 4.70 | AUC [2]: 0.577 | pIC50 [2]: 5.68 | AUC [3]: 0.932 | pIC50 [3]: < 5.29 | AUC [4]: 0.946 | pIC50 [4]: < 5.00

CW-2 (large intestine, adherent)
AUC [1]: 0.977 | pIC50 [1]: < 4.70 | AUC [2]: 0.652 | pIC50 [2]: 5.47 | AUC [3]: 0.987 | pIC50 [3]: < 5.29 | AUC [4]: 0.978 | pIC50 [4]: < 5.00

CaR-1 (large intestine, adherent)
AUC [1]: 0.978 | pIC50 [1]: < 4.70 | AUC [2]: 0.655 | pIC50 [2]: 5.38 | AUC [3]: 0.975 | pIC50 [3]: < 5.29 | AUC [4]: 0.816 | pIC50 [4]: 5.02

Calu-3 (lung adenocarcinoma, adherent)
AUC [1]: 0.983 | pIC50 [1]: < 4.70 | AUC [2]: 0.766 | pIC50 [2]: 5.03 | AUC [3]: 0.98 | pIC50 [3]: < 5.29 | AUC [4]: 0.879 | pIC50 [4]: < 5.00

Capan-2 (pancreas, adherent)
AUC [1]: 0.985 | pIC50 [1]: < 4.70 | AUC [2]: 0.976 | pIC50 [2]: < 4.70 | AUC [3]: 0.981 | pIC50 [3]: < 5.29 | AUC [4]: 0.982 | pIC50 [4]: < 5.00

D-247MG (glioma, adherent)
AUC [1]: 0.979 | pIC50 [1]: < 4.70 | AUC [2]: 0.517 | pIC50 [2]: 5.85 | AUC [3]: 0.963 | pIC50 [3]: < 5.29 | AUC [4]: 0.919 | pIC50 [4]: < 5.00

D-263MG (glioma, adherent)
AUC [1]: 0.98 | pIC50 [1]: < 4.70 | AUC [2]: 0.643 | pIC50 [2]: 5.47 | AUC [3]: 0.983 | pIC50 [3]: < 5.29 | AUC [4]: 0.845 | pIC50 [4]: 5.02

D-336MG (glioma, adherent)
AUC [1]: 0.958 | pIC50 [1]: < 4.70 | AUC [2]: 0.567 | pIC50 [2]: 5.70 | AUC [3]: 0.969 | pIC50 [3]: < 5.29 | AUC [4]: 0.935 | pIC50 [4]: < 5.00

D-392MG (glioma, adherent)
AUC [1]: 0.952 | pIC50 [1]: < 4.70 | AUC [2]: 0.671 | pIC50 [2]: 5.35 | AUC [3]: 0.973 | pIC50 [3]: < 5.29 | AUC [4]: 0.899 | pIC50 [4]: < 5.00

D-423MG (glioma, adherent)
AUC [1]: 0.893 | pIC50 [1]: < 4.70 | AUC [2]: 0.488 | pIC50 [2]: 5.94 | AUC [3]: 0.974 | pIC50 [3]: < 5.29 | AUC [4]: 0.896 | pIC50 [4]: < 5.00

D-542MG (glioma, adherent)
AUC [1]: 0.984 | pIC50 [1]: < 4.70 | AUC [2]: 0.509 | pIC50 [2]: 5.88 | AUC [3]: 0.984 | pIC50 [3]: < 5.29 | AUC [4]: 0.919 | pIC50 [4]: < 5.00

D-566MG (glioma, adherent)
AUC [1]: 0.955 | pIC50 [1]: < 4.70 | AUC [2]: 0.439 | pIC50 [2]: 6.07 | AUC [3]: 0.984 | pIC50 [3]: < 5.29 | AUC [4]: 0.916 | pIC50 [4]: < 5.00

DBTRG-05MG (glioma, adherent)
AUC [1]: 0.976 | pIC50 [1]: < 4.70 | AUC [2]: 0.667 | pIC50 [2]: 5.40 | AUC [3]: 0.983 | pIC50 [3]: < 5.29 | AUC [4]: 0.914 | pIC50 [4]: < 5.00

DG-75 (Burkitt lymphoma, suspension)
AUC [1]: 0.96 | pIC50 [1]: < 4.70 | AUC [2]: 0.579 | pIC50 [2]: 5.69 | AUC [3]: 0.986 | pIC50 [3]: < 5.29 | AUC [4]: 0.711 | pIC50 [4]: 5.61

DMS-53 (small cell lung carcinoma, adherent)
AUC [1]: 0.988 | pIC50 [1]: < 4.70 | AUC [2]: 0.921 | pIC50 [2]: < 4.70 | AUC [3]: 0.988 | pIC50 [3]: < 5.29 | AUC [4]: 0.903 | pIC50 [4]: < 5.00

DMS-114 (small cell lung carcinoma, adherent)
AUC [1]: 0.972 | pIC50 [1]: < 4.70 | AUC [2]: 0.775 | pIC50 [2]: 5.04 | AUC [3]: 0.981 | pIC50 [3]: < 5.29 | AUC [4]: 0.896 | pIC50 [4]: < 5.00

DMS-273 (small cell lung carcinoma, adherent)
AUC [1]: 0.848 | pIC50 [1]: 4.79 | AUC [2]: 0.371 | pIC50 [2]: 6.27 | AUC [3]: 0.978 | pIC50 [3]: < 5.29 | AUC [4]: 0.983 | pIC50 [4]: < 5.00

DND-41 (T-cell leukaemia, suspension)
AUC [1]: 0.755 | pIC50 [1]: 5.22 | AUC [2]: 0.234 | pIC50 [2]: 6.62 | AUC [3]: 0.985 | pIC50 [3]: < 5.29 | AUC [4]: 0.885 | pIC50 [4]: 5.06

DOK (head and neck, adherent)
AUC [1]: 0.968 | pIC50 [1]: < 4.70 | AUC [2]: 0.631 | pIC50 [2]: 5.46 | AUC [3]: 0.968 | pIC50 [3]: < 5.29 | AUC [4]: 0.843 | pIC50 [4]: < 5.00

DOV13 (ovary, adherent)
AUC [1]: 0.962 | pIC50 [1]: < 4.70 | AUC [2]: 0.983 | pIC50 [2]: < 4.70 | AUC [3]: 0.981 | pIC50 [3]: < 5.29 | AUC [4]: 0.866 | pIC50 [4]: < 5.00

Daudi (Burkitt lymphoma, suspension)
AUC [1]: 0.958 | pIC50 [1]: < 4.70 | AUC [2]: 0.376 | pIC50 [2]: 6.22 | AUC [3]: 0.986 | pIC50 [3]: < 5.29 | AUC [4]: 0.858 | pIC50 [4]: 5.18
